Reference: PMC7819943, “Rice protein-binding microarrays: a tool to detect cis-acting elements near promoter regions in rice”
The other results are listed elsewhere or left out.

biological target: T1, OsWOX13 (Oryza sativa, UniProt Q5QMM3 1-267); test: protein-binding microarray (RPBM); PBS, 2% BSA, 51.3 ng/ul salmon testes DNA, 50 uM zinc acetate, 200 nM TF, 25 C, 1 h; high values mean tight binding; conditions: protein: recombinant; tags: N-terminal polyhistidine and DsRed monomer fusion (pET32a); label: CyDye5-dUTP incorporated in the synthesized complementary strand; 3' TTTTT single-stranded linker to array surface; dsDNA, one strand shown
T1 sequence: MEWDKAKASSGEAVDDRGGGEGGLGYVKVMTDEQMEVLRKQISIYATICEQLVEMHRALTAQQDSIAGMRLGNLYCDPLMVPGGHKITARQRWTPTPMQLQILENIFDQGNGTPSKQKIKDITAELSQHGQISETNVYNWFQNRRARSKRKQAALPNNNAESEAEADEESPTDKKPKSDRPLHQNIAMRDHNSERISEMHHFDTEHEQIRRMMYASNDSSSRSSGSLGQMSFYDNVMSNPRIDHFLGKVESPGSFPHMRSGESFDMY
Procedure, shortened: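 Binding signal is defined as the fluorescence intensity of each feature in arbitrary units, read on an Axon 4000B scanner. Transcription factors with N-terminal polyhistidine and DsRed fusions came from E. coli BL21-CodonPlus and were purified on Ni–NTA. They were incubated at 200 nM for 1 h at 25 °C on a custom Agilent array that had been made double-stranded with Cy5-dUTP, with 50 µM zinc acetate present, and the array was washed.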

Sequence | binding signal
TTAATTAATCATGTTTCAAAATTTGTATGTTTTCAATTCCCGGAGTCACCTAGTGCAG | 16800 fluorescence intensity (a.u.)
AAGTTGATAGGAAACTGTACACTACACGATTGGATGCACACGGAGTCACCTAGTGCAG | 17600 fluorescence intensity (a.u.)
CCATTATCAATCATGCTCGATGGGCAAGAGCACTGAAATCCGGAGTCACCTAGTGCAG | 12700 fluorescence intensity (a.u.)
AAAAGTAAATTTGCAATTTGATTTCATACGAGTACAAAAGCGGAGTCACCTAGTGCAG | 9940 fluorescence intensity (a.u.)
TCATGTAAAATTGATGTTACTAAATTTATCATTAATCAAACGGAGTCACCTAGTGCAG | 11700 fluorescence intensity (a.u.)
AATAATTGCCTTCTTCCGTTCATTTTAGTATGTTAGACTGCGGAGTCACCTAGTGCAG | 33300 fluorescence intensity (a.u.)
GGCTGATTGACAACTAATCAAACATAACCAATTGACCTTGCGGAGTCACCTAGTGCAG | 40600 fluorescence intensity (a.u.)
GCTGATTTTCGTGCATGGACATGTTTCCCATCAGTATAAGCGGAGTCACCTAGTGCAG | 11500 fluorescence intensity (a.u.)
ATGTGAATTATATTGGATGATAATTTAATATGTTTGTATTCGGAGTCACCTAGTGCAG | 8180 fluorescence intensity (a.u.)
CATACTTAATTAACACGTTATAGACAGCGTCTTCAAAACCCGGAGTCACCTAGTGCAG | 21800 fluorescence intensity (a.u.)
GTAAAAGTTAATTGATTTGTTTATACCCTCAAATAGCCATCGGAGTCACCTAGTGCAG | 58700 fluorescence intensity (a.u.)
TATGAGATATCATTTAATTATATAATAAATATAATGATGTCGGAGTCACCTAGTGCAG | 4610 fluorescence intensity (a.u.)
TTAAATAGTATAGTCAATTAATAGCTCTAAGATTTAACCACGGAGTCACCTAGTGCAG | 12800 fluorescence intensity (a.u.)
TACTAATTGTGATGCACACAGCATGACAACGGTAGCTAGGCGGAGTCACCTAGTGCAG | 21400 fluorescence intensity (a.u.)
TTCGATTTTAATTGGATGTGTACTTGTGTATGATGTATACCGGAGTCACCTAGTGCAG | 22900 fluorescence intensity (a.u.)
CCCCATCAAGACCAATTGGGGCATGCACGAGTTCACCAAGCGGAGTCACCTAGTGCAG | 27100 fluorescence intensity (a.u.)
TGCACTTTGTCTAAATTGATAGCTAAAATTTATTACTCCACGGAGTCACCTAGTGCAG | 22900 fluorescence intensity (a.u.)
GTGATTGATCTTGCATCCATGGAGTCGGGCTACGGCTTCCCGGAGTCACCTAGTGCAG | 43300 fluorescence intensity (a.u.)
GTGGCTTGATCTCTAGTTAATTACCTCCTCCCATATATGACGGAGTCACCTAGTGCAG | 4890 fluorescence intensity (a.u.)
TAACTAATTGCACATATTACGACTAACTTGTGAGACGAATCGGAGTCACCTAGTGCAG | 12300 fluorescence intensity (a.u.)
CCTTTGTTGTGACAAATGTAAATTGATGTGAGAAATCATGCGGAGTCACCTAGTGCAG | 6700 fluorescence intensity (a.u.)

Sequence | binding signal
AGAAGGAAATTATTTCTGATGATGTATGGTGCAAGTGGCTCGGAGTCACCTAGTGCAG | 4920 fluorescence intensity (a.u.)
ATATAGTTACCAAAATTTGACAGCAAACTAAATGTAGCCACGGAGTCACCTAGTGCAG | 7890 fluorescence intensity (a.u.)
TTTTGACTAATAATCATACTAACTATATCTATACTAAGTACGGAGTCACCTAGTGCAG | 17500 fluorescence intensity (a.u.)
GGCTAACAAGATATGACAGTTTTGTGTACGAAGTGCTAGACGGAGTCACCTAGTGCAG | 3270 fluorescence intensity (a.u.)
TTGCTGTTCTCACTAATCAATCAATAATACCTCTCTTTTCCGGAGTCACCTAGTGCAG | 13100 fluorescence intensity (a.u.)
AGCTAATCTAATCATCGCACTAGCTAGCTAAAGCACCCACCGGAGTCACCTAGTGCAG | 10500 fluorescence intensity (a.u.)
TACTCTTAGATTGAACAGGCTTCTGGCTCAAAACTTTTGACGGAGTCACCTAGTGCAG | 8550 fluorescence intensity (a.u.)
GAGAATTAATTTCTTGGGCTGGGAACTCTTGGTCCGCTGCCGGAGTCACCTAGTGCAG | 15800 fluorescence intensity (a.u.)
CCGTAATCTCAATTAACCCGTGGTAATCGGAAAACCGGATCGGAGTCACCTAGTGCAG | 22900 fluorescence intensity (a.u.)
TTGTTGTCATTCAATTAGCACTTAAACTTCTGTAGCATAACGGAGTCACCTAGTGCAG | 15400 fluorescence intensity (a.u.)
TGGGTTAATTGGGTTGGGTGGGCCGCTGCCTATGTGGCGGCGGAGTCACCTAGTGCAG | 24200 fluorescence intensity (a.u.)
AAACCTATGACAATCAACCTTTTGACTGTCATACTAGCTCCGGAGTCACCTAGTGCAG | 9360 fluorescence intensity (a.u.)
AAATTAGCAAATTGGTTGTCAAAATATTATTACCCAAACACGGAGTCACCTAGTGCAG | 5170 fluorescence intensity (a.u.)
GAATGTTGATAGGCATGTCATCGATCTTTTCGTTAGAACTCGGAGTCACCTAGTGCAG | 7550 fluorescence intensity (a.u.)
GTTGACTGTTGACGAAGATCAGTCAATCTGTGCAGGTTGCCGGAGTCACCTAGTGCAG | 16700 fluorescence intensity (a.u.)
AGGGCTTAATTGTGAAAACTACCCAAACATGGGCCTCGTACGGAGTCACCTAGTGCAG | 17300 fluorescence intensity (a.u.)
TATTTAATCATTAGCCTATGAATACATGCCATCAGAAATCCGGAGTCACCTAGTGCAG | 4300 fluorescence intensity (a.u.)
AAATAATTAATTTGGAGAATTTGTTTGGACGATTTGAAACCGGAGTCACCTAGTGCAG | 37000 fluorescence intensity (a.u.)
TTAAACTAATTGTGGGAAGAAATAATATTTCACATCAGTGCGGAGTCACCTAGTGCAG | 24700 fluorescence intensity (a.u.)
CTGGAAATTAAATAATGTGTACGTTCTCCCTCAATTTGTGCGGAGTCACCTAGTGCAG | 6980 fluorescence intensity (a.u.)
AACTATTTTGAAGTTAATTGCAATATGTGATGAACTGATGCGGAGTCACCTAGTGCAG | 7050 fluorescence intensity (a.u.)
